Measurements published in article PMC5362245, “Depletion of Arabidopsis SC35 and SC35-like serine/arginine-rich proteins affects the transcription and splicing of a subset of genes”.
No constants are given. Whether binding was seen depends on the method and setting. For part of these data: In cells and extracts the contact can be indirect. Some entries that bind do so weakly or less than the wild type. Tags and fused reporters may be left off the sequences shown.

T1: NRPB4-YFP (UniProt O48890)
T1 sequence: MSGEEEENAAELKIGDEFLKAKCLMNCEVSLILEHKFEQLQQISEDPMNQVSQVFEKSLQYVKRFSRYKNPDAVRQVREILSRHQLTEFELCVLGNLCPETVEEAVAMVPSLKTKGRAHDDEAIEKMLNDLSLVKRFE

T2: SCL30a (yeast two-hybrid fusion, pGBKT7) (Arabidopsis thaliana) (UniProt Q9LHP2)
T2 sequence: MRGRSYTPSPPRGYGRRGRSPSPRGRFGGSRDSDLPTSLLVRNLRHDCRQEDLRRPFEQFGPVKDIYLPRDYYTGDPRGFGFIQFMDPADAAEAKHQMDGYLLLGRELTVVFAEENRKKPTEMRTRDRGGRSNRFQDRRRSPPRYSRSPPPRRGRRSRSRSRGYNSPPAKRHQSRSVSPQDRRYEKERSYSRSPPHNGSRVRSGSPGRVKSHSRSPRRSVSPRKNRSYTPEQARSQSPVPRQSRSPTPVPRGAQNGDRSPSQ

T3: SCL28 (yeast two-hybrid fusion, pGBKT7) (Arabidopsis thaliana) (UniProt Q1PDV2)
T3 sequence: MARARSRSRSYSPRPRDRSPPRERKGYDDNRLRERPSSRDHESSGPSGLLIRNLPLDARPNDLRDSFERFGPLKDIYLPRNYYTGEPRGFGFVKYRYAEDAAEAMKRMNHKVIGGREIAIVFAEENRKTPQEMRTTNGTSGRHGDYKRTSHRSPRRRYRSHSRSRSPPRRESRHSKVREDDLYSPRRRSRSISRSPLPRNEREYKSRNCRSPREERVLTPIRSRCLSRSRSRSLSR

T4: SC35 (yeast two-hybrid fusion, pGBKT7) (Arabidopsis thaliana) (UniProt Q9FMG4)
T4 sequence: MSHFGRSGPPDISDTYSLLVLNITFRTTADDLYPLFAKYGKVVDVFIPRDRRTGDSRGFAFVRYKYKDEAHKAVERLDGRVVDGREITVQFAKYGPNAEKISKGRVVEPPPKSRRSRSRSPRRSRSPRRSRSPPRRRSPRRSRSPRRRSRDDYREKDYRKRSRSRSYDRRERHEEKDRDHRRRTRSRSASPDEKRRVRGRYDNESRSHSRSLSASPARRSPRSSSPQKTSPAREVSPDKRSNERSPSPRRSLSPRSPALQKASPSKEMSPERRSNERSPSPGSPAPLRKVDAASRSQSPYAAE

T5: SCL30 (yeast two-hybrid fusion, pGBKT7) (Arabidopsis thaliana) (UniProt Q8L3X8)
T5 sequence: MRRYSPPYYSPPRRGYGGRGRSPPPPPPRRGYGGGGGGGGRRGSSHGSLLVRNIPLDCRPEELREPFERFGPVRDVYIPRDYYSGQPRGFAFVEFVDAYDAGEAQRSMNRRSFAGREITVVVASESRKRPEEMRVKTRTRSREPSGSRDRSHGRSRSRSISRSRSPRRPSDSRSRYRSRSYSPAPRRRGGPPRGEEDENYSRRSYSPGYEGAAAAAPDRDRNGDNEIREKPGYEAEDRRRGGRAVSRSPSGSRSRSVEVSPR

T6: SCL33 (yeast two-hybrid fusion, pGBKT7) (Arabidopsis thaliana) (UniProt Q9SEU4)
T6 sequence: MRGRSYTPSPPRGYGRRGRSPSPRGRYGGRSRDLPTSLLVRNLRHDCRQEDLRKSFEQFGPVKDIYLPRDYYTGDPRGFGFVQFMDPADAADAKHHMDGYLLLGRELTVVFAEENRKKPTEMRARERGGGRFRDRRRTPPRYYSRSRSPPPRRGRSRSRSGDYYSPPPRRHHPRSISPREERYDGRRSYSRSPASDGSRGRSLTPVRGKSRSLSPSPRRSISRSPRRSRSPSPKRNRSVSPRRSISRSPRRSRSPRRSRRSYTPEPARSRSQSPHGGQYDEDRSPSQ


What was measured:
NRPB4-YFP = target: T1, NRPB4-YFP; experiment: co-IP; SC35/SCL-Flag and NRPB4-YFP co-infiltrated into tobacco leaves; extract (50 mM Tris-HCl pH 8.0, 150 mM NaCl, 0.5% Triton X-100) incubated with GFP agarose beads 3-4 h at 4°C; blot with anti-Flag and anti-GFP
[1] = target: T2, SCL30a (yeast two-hybrid fusion, pGBKT7) (Arabidopsis thaliana); experiment: two-hybrid; yeast strain AH109, pGBKT7 and pGADT7 constructs cotransformed pairwise; selection on SD-Trp-Leu-His-Ade and SD-Trp-Leu-His + 5 mM 3-AT; 30°C, 3-6 d
[2] = target: T3, SCL28 (yeast two-hybrid fusion, pGBKT7) (Arabidopsis thaliana); experiment: as above
[3] = target: T4, SC35 (yeast two-hybrid fusion, pGBKT7) (Arabidopsis thaliana); experiment: as above
[4] = target: T5, SCL30 (yeast two-hybrid fusion, pGBKT7) (Arabidopsis thaliana); experiment: as above
[5] = target: T6, SCL33 (yeast two-hybrid fusion, pGBKT7) (Arabidopsis thaliana); experiment: as above

binding (NRPB4-YFP) | binding [1] | binding [2] | binding [3] | binding [4] | binding [5] | Binder
binds | – | – | – | – | – | SCL30-Flag (protein, UniProt Q8L3X8 1-262) MRRYSPPYYSPPRRGYGGRGRSPPPPPPRRGYGGGGGGGGRRGSSHGSLLVRNIPLDCRPEELREPFERFGPVRDVYIPRDYYSGQPRGFAFVEFVDAYDAGEAQRSMNRRSFAGREITVVVASESRKRPEEMRVKTRTRSREPSGSRDRSHGRSRSRSISRSRSPRRPSDSRSRYRSRSYSPAPRRRGGPPRGEEDENYSRRSYSPGYEGAAAAAPDRDRNGDNEIREKPGYEAEDRRRGGRAVSRSPSGSRSRSVEVSPR
no binding | – | – | – | – | – | SC35-Flag (protein, UniProt Q9FMG4 1-303) MSHFGRSGPPDISDTYSLLVLNITFRTTADDLYPLFAKYGKVVDVFIPRDRRTGDSRGFAFVRYKYKDEAHKAVERLDGRVVDGREITVQFAKYGPNAEKISKGRVVEPPPKSRRSRSRSPRRSRSPRRSRSPPRRRSPRRSRSPRRRSRDDYREKDYRKRSRSRSYDRRERHEEKDRDHRRRTRSRSASPDEKRRVRGRYDNESRSHSRSLSASPARRSPRSSSPQKTSPAREVSPDKRSNERSPSPRRSLSPRSPALQKASPSKEMSPERRSNERSPSPGSPAPLRKVDAASRSQSPYAAE
– | binds | binds | binds | binds | binds | U1-70K (yeast two-hybrid fusion, pGADT7) (protein, UniProt Q42404 1-427) MGDSGDPFLRNPNAAVQARAKVQNRANVLQLKLMGQSHPTGLTNNLLKLFEPRPPLEYKPPPEKRKCPPYTGMAQFVSNFAEPGDPEYAPPKPEVELPSQKRERIHKLRLEKGVEKAAEDLKKYDPNNDPNATGDPYKTLFVSRLNYESSESKIKREFESYGPIKRVHLVTDQLTNKPKGYAFIEYMHTRDMKAAYKQADGQKIDGRRVLVDVERGRTVPNWRPRRLGGGLGTSRVGGGEEIVGEQQPQGRTSQSEEPSRPREEREKSREKGKERERSRELSHEQPRERSRDRPREDKHHRDRDQGGRDRDRDSRRDRDRTRDRGDRDRRDRDRGRDRTSRDHDRDRSRKKERDYEGGEYEHEGGGRSRERDAEYRGEPEETRGYYEDDQGDTDRYSHRYDKMEEDDFRYEREYKRSKRSESREYVR
no binding | – | – | – | – | – | SCL33-Flag (protein, UniProt Q9SEU4 1-287) MRGRSYTPSPPRGYGRRGRSPSPRGRYGGRSRDLPTSLLVRNLRHDCRQEDLRKSFEQFGPVKDIYLPRDYYTGDPRGFGFVQFMDPADAADAKHHMDGYLLLGRELTVVFAEENRKKPTEMRARERGGGRFRDRRRTPPRYYSRSRSPPPRRGRSRSRSGDYYSPPPRRHHPRSISPREERYDGRRSYSRSPASDGSRGRSLTPVRGKSRSLSPSPRRSISRSPRRSRSPSPKRNRSVSPRRSISRSPRRSRSPRRSRRSYTPEPARSRSQSPHGGQYDEDRSPSQ
– | binds | binds | binds | binds | binds | U2AF65a (yeast two-hybrid fusion, pGADT7) (protein, UniProt O23212 1-573) MSEFEDHEGNGTVADAIYDEENGGRDGEIEDQLDSKPKRESRDHERETSRSKDREREKGRDKDRERDSEVSRRSRDRDGEKSKERSRDKDRDHRERHHRSSRHRDHSRERGERRERGGRDDDDYRRSRDRDHDRRRDDRGGRRSRRSRSRSKDRSERRTRSRSPSKSKQRVSGFDMAPPASAMLAAGAAVTGQVPPAPPTLPGAGMFPNMFPLPTGQSFGGLSMMPIQAMTQQATRHARRVYVGGLSPTANEQSVATFFSQVMAAVGGNTAGPGDAVVNVYINHEKKFAFVEMRSVEEASNAMSLDGIIFEGAPVKVRRPSDYNPSLAATLGPSQPSPHLNLAAVGLTPGASGGLEGPDRIFVGGLPYYFTESQVRELLESFGGLKGFDLVKDRETGNSKGYAFCVYQDLSVTDIACAALNGIKMGDKTLTVRRANQGTMLQKPEQENVLLHAQQQIAFQRVMLQPGAVATTVVCLTQVVTEDELRDDEEYGDIMEDMRQEGGKFGALTNVVIPRPSPNGEPVAGLGKVFLKYADTDGSTRARFGMNGRKFGGNEVVAVYYPEDKFEQGDYGA
no binding | – | – | – | – | – | SCL30a-Flag (protein, UniProt Q9LHP2 1-262) MRGRSYTPSPPRGYGRRGRSPSPRGRFGGSRDSDLPTSLLVRNLRHDCRQEDLRRPFEQFGPVKDIYLPRDYYTGDPRGFGFIQFMDPADAAEAKHQMDGYLLLGRELTVVFAEENRKKPTEMRTRDRGGRSNRFQDRRRSPPRYSRSPPPRRGRRSRSRSRGYNSPPAKRHQSRSVSPQDRRYEKERSYSRSPPHNGSRVRSGSPGRVKSHSRSPRRSVSPRKNRSYTPEQARSQSPVPRQSRSPTPVPRGAQNGDRSPSQ
binds | – | – | – | – | – | SCL28-Flag (protein, UniProt Q1PDV2 1-236) MARARSRSRSYSPRPRDRSPPRERKGYDDNRLRERPSSRDHESSGPSGLLIRNLPLDARPNDLRDSFERFGPLKDIYLPRNYYTGEPRGFGFVKYRYAEDAAEAMKRMNHKVIGGREIAIVFAEENRKTPQEMRTTNGTSGRHGDYKRTSHRSPRRRYRSHSRSRSPPRRESRHSKVREDDLYSPRRRSRSISRSPLPRNEREYKSRNCRSPREERVLTPIRSRCLSRSRSRSLSR
